Assay results from patent US7112553B1, “Pesticidal indazole or benzotriazole derivatives” (Syngenta Limited, priority 1999, dated 2006).

Tested on: two-spotted spider mites (Tetranychus urticae)
Conditions: 500 ppm liquid composition; similar test to the aphid test

CCCCCn1nc2ccc(CC(=O)Nc3snc(C)c3Cl)cc2n1 [Sample 9] was tested, and the mortality score was 5 (5 indicates 40–79% mortality).
